According to PubChem BioAssay AID2451 (National Center for Advancing Translational Sciences (NCATS), 2010):
Hit rate of the full screen: of about 290,000 compounds, about 2,100 (0.72%) were called active. The shares of active, inactive and inconclusive entries below differ from those in the screen. The call rests on the fitted dose curve; in most records, active means well fitted inhibition curve with a large enough effect; inconclusive means small, poorly fitted or top-dose-only effect, or effect the other way; inactive means flat fitted curve, though single readings scatter. Potencies of inconclusive entries are doubtful fits and often do not repeat.

The molecules below were run against Fructose-bisphosphate aldolase (Giardia intestinalis (strain ATCC 50803 / WB clone C6)) (UniProt A8B2U2) (assay: qHTS Assay for Inhibitors of Fructose-1,6-bisphosphate Aldolase from Giardia Lamblia). Conditions: purified Giardia FBPA; activity, negative = inhibition: at 59.6 µM (top of the series) unless noted.
How it was run: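 Giardia FBPA (40 nM reagent) was preincubated 10 min at RT with compound (up to 57.5 uM final), then substrate plus GAPDH/TPI/NAD/arsenate coupling system with diaphorase/resazurin was added; resorufin fluorescence (525/598 nm) was read after 20 min.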
Further: nearly all actives have a fitted effect of over 55% in size.
On the % scale 0 is the no-effect control and ±100 the full control effect; potency means the concentration at half of the fitted maximal effect; tags describe the fitted curve by direction and shape.

Chain of UniProt A8B2U2 (A8B2U2 whole entry, looked up): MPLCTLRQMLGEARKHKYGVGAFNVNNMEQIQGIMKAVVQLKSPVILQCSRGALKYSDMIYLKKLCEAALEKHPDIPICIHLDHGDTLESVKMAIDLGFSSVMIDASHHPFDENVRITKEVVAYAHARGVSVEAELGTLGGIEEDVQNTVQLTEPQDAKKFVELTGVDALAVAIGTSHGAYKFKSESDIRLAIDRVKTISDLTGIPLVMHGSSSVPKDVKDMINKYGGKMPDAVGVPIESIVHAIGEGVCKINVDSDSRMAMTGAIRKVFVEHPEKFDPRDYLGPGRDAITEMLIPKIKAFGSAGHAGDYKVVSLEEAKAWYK

Compound	Potency	activity, negative = inhibition
O=S(=O)(Nc1ccc(Cl)cc1)c1ccc(N2CCOCC2)c(NC(=S)NCCN2CCOCC2)c1	active: 5 µM	–
NS(=O)(=O)c1ccc(CCNC(=O)Nc2ccc(Cl)c(Cl)c2)cc1	–	inactive: -6.27%
CN(C)c1ccc(C(=C2C=CC(=[N+](C)C)C=C2)c2ccc(N(C)C)cc2)cc1	active: 15.8 µM	–
Cc1ccnc(NS(=O)(=O)c2ccc(NC(=O)c3ccc(Cl)cc3[N+](=O)[O-])cc2)n1	inconclusive: 35.5 µM [inhibitor, single point]	–
CCOC(=O)N1CCN(CC(=O)Nc2nnc(C(F)(F)F)s2)CC1	active: 5.01 µM	–
COc1ccc(/C=N/Nc2cc(C)nc3ccc(OC)cc23)c(OC)c1	–	inactive: 13.6%
COc1ccc(N=Cc2[nH]c3ccccc3c2O)cc1	active: 14.1 µM	–
Cc1ccc(C)c(Cn2c(=O)c3c(nc4n3CCN4Cc3ccco3)n(C)c2=O)c1	–	inactive: -0.871%
O=[N+]([O-])c1ccc(O)c(CN2CCCCCC2)c1	–	inactive: -28.1%
CC(=O)Nc1ccc2nc(NC(=O)CN3CCOCC3)sc2c1	inconclusive: 14.1 µM [inhibitor, partial curve]	–
COc1ccc(NCc2ccccc2[N+](=O)[O-])cc1OC	inconclusive: 9.98 µM [inhibitor, partial curve]	–
Cc1cc(C)nc(N2C(=O)CC(C(=O)O)NC2=NCCc2c[nH]c3ccccc23)n1 (stereo not drawn)	–	inactive: 3.4%
CCc1cccc(NC(=O)CCNS(=O)(=O)c2ccc3[nH]c(=O)oc3c2)c1	inconclusive: 22.4 µM [inhibitor, single point]	–
Oc1c(Cl)cc(Cl)cc1C=Nc1cc(C(F)(F)F)ccc1N1CCc2ccccc2C1	inconclusive: 17.7 µM [inhibitor, partial curve]	–
Cc1ccnc(NS(=O)(=O)c2ccc(NC(=O)c3ccc([N+](=O)[O-])s3)cc2)n1	–	inactive: 6.78%
CC(C)(C)c1ccc(C(=O)c2c[nH]c(C(=O)O)c2)cc1	inconclusive: 17.7 µM [activator, single point]	–
CN(Cc1cccc(Cl)c1Cl)CC(O)COc1ccccc1 (stereo not drawn)	inconclusive: 25.1 µM [inhibitor, partial curve]	–
Cc1ccnc(NS(=O)(=O)c2ccc(N3C(=O)C4CCCCC4C3=O)cc2)n1 (stereo not drawn)	inconclusive: 28.2 µM [inhibitor, partial curve]	–
O=[N+]([O-])c1cc(CN2CCC(O)CC2)ccc1Cl	inconclusive: 19.9 µM [inhibitor, partial curve]	–
COc1cccc(NC(=O)c2ccc3c(c2)N(C)CCS3)c1	inconclusive: 31.6 µM [inhibitor, partial curve]	–
c1coc(-c2nnc3sc(Cc4cccs4)nn23)c1	–	inactive: -6.89%
COc1ccc(CN2CC(C(=O)NCCCN3CCCCCC3)CC2=O)cc1 (stereo not drawn)	inconclusive: 31.5 µM [inhibitor, single point]	–
C=CCNc1nc(NCc2ccccc2)c(C#N)c2c1CN(C)CC2	inconclusive: 14.1 µM [inhibitor, partial curve]	–
O=S(=O)(c1ccccc1)N1CCC[C@@]2(CCN(Cc3cc(C(F)(F)F)cc(C(F)(F)F)c3)C2)C1	–	inactive: -2.04%

Compound	Potency	activity, negative = inhibition
N#Cc1c(-c2ccccc2)nc(-c2cccnc2)[nH]c1=O	–	inactive: 13.8%
CC(C)C[C@H](NC(=O)[C@H](Cc1ccccc1)NC(=O)[C@@H]1CCCN1C(=O)[C@H](CC(=O)O)NC(=O)[C@@H]1CCC(=O)N1)C(=O)N[C@@H](CCCN=C(N)N)C(=O)N[C@@H](Cc1ccccc1)C(N)=O	–	inactive: 1.82%
Cc1ccccc1CSc1nnc(NC(=O)C2COc3ccccc3O2)s1 (stereo not drawn)	inconclusive: 17.7 µM [activator, partial curve]	–
CC(C)(C)[C@@H]1C=C(C(=O)NCc2ccccc2)O[C@H](OCc2ccc(CO)cc2)C1	inconclusive: 15.8 µM [inhibitor, single point]	–
Cc1ccc(CN(Cc2ccccc2)C(=S)NCC(=O)NCc2cccnc2)o1	active: 15.8 µM	–
O=c1cnnc(N/N=C/c2cccs2)[nH]1	inconclusive: 17.7 µM [inhibitor, partial curve]	–
O=C(C1CCCN(Cc2cccc(Cl)c2)C1)N1CCCCC1 (stereo not drawn)	inconclusive: 28.2 µM [inhibitor, partial curve]	–
COc1ccc(CCNCC(C)c2ccccc2)cc1 (stereo not drawn)	inconclusive: 25.1 µM [inhibitor, single point]	–
COc1cccc(N=Nc2c(C)[nH]n(-c3ccccc3)c2=O)c1	active: 3.55 µM	–
CC(C)(C)NC(=O)NC(=O)CN1CCc2ccccc21	inconclusive: 22.3 µM [inhibitor, single point]	–
Cc1c(C#N)c(O)n(CCO)c(=O)c1N=Nc1ccc2c(c1)COC2=O	active: 19.9 µM	–
CCCCn1c(NC(=O)c2ccccc2Cl)c(C#N)c2nc3ccccc3nc21	inconclusive: 9.98 µM [inhibitor, partial curve]	–
COc1ccc(/C=N/NC(=O)c2nonc2N)cc1OC	–	inactive: -10.1%
COc1cc(-c2nc3ccccn3c2N)ccc1O	inconclusive: 25.1 µM [inhibitor, single point]	–
COc1cc(OC)cc(C(=O)Nn2cc(C(=O)Nc3c(F)cccc3F)c3ccccc3c2=O)c1	–	inactive: 2.8%
COc1ccc(C(=O)N2CCC3(CCCN(c4ncccn4)C3)CC2)cc1	–	inactive: 8.34%
CCSC1=NC(C)(C)C=C(C)N1	–	inactive: 1.59%
COc1ccc(NC(=O)NNC(=O)COc2ccc3ccccc3c2)cc1OC	–	inactive: -3.26%
COc1ccc(Cl)cc1Nc1nc(N)c2ccccc2n1	inconclusive: 25.1 µM [inhibitor, partial curve]	–
CCOc1cc(/C=N/NC(=O)C(=O)Nc2cc(Cl)ccc2C)ccc1O	–	inactive: 4.2%
CCn1c(O)c(C#N)c(C)cc1=O	active: 12.6 µM	–
O=S(=O)(/N=C(/Nc1cccc2ccccc12)c1ccc(F)cc1)c1ccccc1	–	inactive: 2.45%
CCCCCn1c(=O)c(C(=O)Nc2ccccc2N)c(O)c2ccccc21	–	inconclusive: 46.7% [activator]
CC(C)c1ccc2c(c1)c(SC(C)(C)C)c(CC(C)(C)C(=O)O)n2Cc1ccc(Cl)cc1	inconclusive: 35.4 µM [inhibitor, single point]	–
